# Data as given in article PMC4336329 (PLoS ONE, 2015).
# Screen size: about 310,000 compounds; about 2,200 (0.71%) showed an effect of 50% or more. Effects have a minus sign here. The list shows a part of the results. Where a SMILES comes first, the peptide text is derived from it. [ ]: non-standard residue; d: D form. The star is where a group is joined. Phe(4-Me) = Cc1ccc(C[CH](N)C(=O)O)cc1; Bz = O=C(c1ccccc1)*
# Target: human ether-à-go-go-related gene (hERG) potassium channel (human, UniProt Q12809)
# Sequence (Q12809 whole entry, looked up): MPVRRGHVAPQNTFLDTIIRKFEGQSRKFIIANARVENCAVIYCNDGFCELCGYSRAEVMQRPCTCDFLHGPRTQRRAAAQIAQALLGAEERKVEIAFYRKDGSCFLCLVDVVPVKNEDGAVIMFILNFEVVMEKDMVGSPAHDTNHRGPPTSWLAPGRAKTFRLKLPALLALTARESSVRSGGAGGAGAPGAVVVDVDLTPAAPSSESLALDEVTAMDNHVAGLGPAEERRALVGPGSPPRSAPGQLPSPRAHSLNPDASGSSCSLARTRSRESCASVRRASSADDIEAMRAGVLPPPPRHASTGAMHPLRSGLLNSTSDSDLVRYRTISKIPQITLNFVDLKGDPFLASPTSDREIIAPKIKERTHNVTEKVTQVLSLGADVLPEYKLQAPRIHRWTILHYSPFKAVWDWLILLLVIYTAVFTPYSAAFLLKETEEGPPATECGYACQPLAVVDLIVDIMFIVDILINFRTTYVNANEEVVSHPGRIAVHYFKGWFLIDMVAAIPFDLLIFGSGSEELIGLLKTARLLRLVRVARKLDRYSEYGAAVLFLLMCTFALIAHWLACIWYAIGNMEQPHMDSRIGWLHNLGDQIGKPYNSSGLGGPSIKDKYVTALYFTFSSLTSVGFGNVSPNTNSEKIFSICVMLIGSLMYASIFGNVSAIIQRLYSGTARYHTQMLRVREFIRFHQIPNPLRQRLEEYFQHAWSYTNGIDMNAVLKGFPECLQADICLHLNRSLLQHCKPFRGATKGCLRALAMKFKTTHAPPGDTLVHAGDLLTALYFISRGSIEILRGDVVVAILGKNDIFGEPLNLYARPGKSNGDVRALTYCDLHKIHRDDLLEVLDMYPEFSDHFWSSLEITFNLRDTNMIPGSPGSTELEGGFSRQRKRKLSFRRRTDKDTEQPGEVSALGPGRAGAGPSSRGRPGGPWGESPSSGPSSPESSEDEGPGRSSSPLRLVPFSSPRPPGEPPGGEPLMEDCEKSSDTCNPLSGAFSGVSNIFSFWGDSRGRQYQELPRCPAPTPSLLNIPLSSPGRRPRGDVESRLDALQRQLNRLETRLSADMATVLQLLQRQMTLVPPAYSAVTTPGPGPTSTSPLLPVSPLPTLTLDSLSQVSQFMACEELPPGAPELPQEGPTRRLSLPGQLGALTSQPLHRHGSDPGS
# Assay: primary screen, population patch clamp on CHO cells stably expressing hERG
row,SMILES,"hERG current change (%, negative = inhibition) at 1uM [%]"
1,COc1ccccc1CNC(=O)COC(=O)Cc1ccc(Cl)cc1,4.95
2,O=C(NC1CCS(=O)(=O)C1)c1cn(-c2ccccc2)nc1-c1ccccc1 (stereo not shown),0.884
3,CCNC(=S)NCc1ccc(F)cc1,6.79
4,COc1ccc(CC(=O)Nc2ccc(C)cc2O)cc1S(=O)(=O)N1CCOCC1,5.41
5,O=C(CSc1nc2ccccc2s1)NCCOc1ccc(Cl)cc1,17.8
6,COCc1nnc(NC(=O)CCc2ccc(OC)cc2)s1,12.6
7,Cc1ccc(CC(NC(=O)c2ccccc2)C(=O)NC(CC(C)C)C(=O)O)cc1 (stereo not shown) (Bz-[Phe(4-Me)]-Leu-OH; configuration not given here),15.5
8,CCN1CCN(CCCNC(=O)C2CCN(c3nnc(-n4cccc4)s3)CC2)CC1,2.05
9,CSCCC(NC(=O)c1ccccc1Cl)C(=O)NCc1ccncc1 (stereo not shown),1.15
10,COCCn1c(N)c(NCc2ccccc2)c(=O)[nH]c1=O,18.4
11,O=C(COc1ccc2c3c(c(=O)oc2c1)CCC3)NCCCN1CCOCC1,20.6
12,O=C([O-])c1ncc(Cl)c(Cl)c1Cl.[NH4+],13.4
13,O=C(NCCc1cccc(C(F)(F)F)c1)C1CCC(=O)N(Cc2ccc(Cl)cc2)C1 (stereo not shown),-4.65
14,O=C(/C=C/c1c(F)cccc1Cl)Nc1nc2ccccc2[nH]1,9.99
15,CCCc1cc(=O)oc2cc(OCC(=O)Nc3ccccn3)ccc12,9.97
16,COc1ccc(OCCCC(=O)Nc2ccc(OC)c(S(=O)(=O)N3CCOCC3)c2)cc1,5.58
17,CCOc1ccc(CCNC(=O)COC(=O)c2ccco2)cc1OCC,7.61
18,CN(Cc1ccccc1)C(=O)Cn1c(=O)oc2cc(S(=O)(=O)NCc3ccccc3)ccc21,3.67
19,O=C(CNC(=O)c1cccs1)OCC(=O)c1cccs1,4.58
20,O=C(CCCn1c(=O)[nH]c2cc(Cl)ccc2c1=O)NCCCN1CCCC1=O,1.72
21,O=C(OCc1cc2ccccc2[nH]c1=O)c1ccccc1,4.79
22,O=C(NCC1CCCO1)Nc1ccc(Cl)cc1 (stereo not shown),-8.42

row,SMILES,"hERG current change (%, negative = inhibition) at 1uM [%]"
1,COc1cc(C(O)P(=O)(OC2CCCCC2)c2ccc(N(C)C)cc2)cc(OC)c1OC (stereo not shown),0.907
2,CC1Cc2ccccc2N1C(=O)CSc1nnc(-c2ccc(S(=O)(=O)N3CCCC3)cc2)o1 (stereo not shown),-4.54
3,CC(C)c1ccc(OCC(=O)Nc2ccc(OC(F)(F)F)cc2)cc1,3.79
4,CCn1c(=O)cc(OCC(=O)N2CCC3(CC2)OCCO3)c2ccccc21,13.6
5,Cc1cc(C)n(CC(O)COc2ccc(C(C)C)c(C)c2)n1 (stereo not shown),8.97
6,COc1ccc2c(c1OC)C(=O)N1N=C(c3ccc(Br)cc3)CC21 (stereo not shown),5.49
7,Cc1ccc(NC(=O)Cn2nnc(C(=O)NCc3cccs3)c2N)cc1,3.75
8,COc1cccc2cc(-c3cc(=O)oc4ccc(OCC(C)=O)cc34)oc12,14.6
9,COc1ccc(OC)c(/C=C/C(=O)OCC(=O)c2c(N)n(C)c(=O)n(C)c2=O)c1,1.23
10,CC(=O)c1c(C)[nH]c(C(=O)N2CCc3ccccc3C2)c1C,4.27
11,Cc1ccc(OCCCc2c(C)n[nH]c2C)cc1,13.2
12,OCC1(Cc2ccccc2C(F)(F)F)CCN(Cc2ccncc2)CC1,10.1
13,CCCCC(=O)Nc1ccc(C)c(S(=O)(=O)N2CCCCCC2)c1,7.77
14,O=C(NCc1ccc(Cl)cc1)C(=O)NCC1OCCN1S(=O)(=O)c1cccs1 (stereo not shown),4.68
15,CCOC(=O)C1(CC2CCCCO2)CCN(C(=O)Nc2ccccc2SC)CC1 (stereo not shown),10.6
16,NC(=O)CSc1nnnn1-c1cccc(Cl)c1,17.5
17,CCCCC(=O)N(Cc1ccc(-c2ccccc2-c2nn[nH]n2)cc1)[C@H](C(=O)O)C(C)C,17.9
18,N#Cc1ccc(NC(=O)Cn2cnc(S(=O)(=O)N3CCCCC3)c2)cc1,17.8
19,C=CCNc1nc(Cl)nc(Nc2ccc([N+](=O)[O-])cc2)n1,5.98
20,COc1ccc([N+](=O)[O-])c(OC)c1C(=O)NC(=O)Nc1c(C)cccc1C,9.29
21,O=C(CNC(=O)c1ccccc1F)N/N=C\C=C\c1ccccc1,7.95
22,Cc1ccc(NC(=O)O/N=C/c2c(C)nn(C(C)(C)C)c2C)cc1Cl,3.27

row,SMILES,"hERG current change (%, negative = inhibition) at 1uM [%]"
1,CC(C)(C)OC(=O)NOCC(=O)N(Cc1ccccc1)CC(O)COc1ccccc1 (stereo not shown),12.7
2,CCOc1ccccc1NS(=O)(=O)c1ccc2[nH]c(=O)[nH]c2c1,15.7
3,COc1cccc2cc(C(=O)C3=C(O)C(=O)N(CCN4CCOCC4)C3c3cccc(Cl)c3)oc12 (stereo not shown),14.6
4,C=CCSc1nnc2c(n1)-c1cccc3cccc-2c13,10.4
5,O=C(N/N=C/c1c[nH]c2ccccc12)c1ccccc1,16.2
6,Cc1coc2c(C)c3oc(=O)cc(-c4ccccc4)c3cc12,12.1
7,CCOc1ccc(N2C(=O)CC(Sc3nc(CC(C)C)ccc3C#N)C2=O)cc1 (stereo not shown),14.5
8,CCOc1ccc(NC(=O)CSc2nc3ccsc3c(=O)n2CCC(=O)O)cc1,1.5
9,COc1ccc(OC)c(CC(=O)O)c1,11.2
10,COc1ccc(-n2c(SCc3ccc([N+](=O)[O-])cc3)nnc2-c2ccc(C)cc2)cc1,21.1
11,CCN(CC(=O)NCCc1ccccc1)S(=O)(=O)c1ccc(Br)cc1,5.79
12,O=C(NCCc1ccccc1)c1ccccc1NC(=O)C1CCCCC1C(=O)O (stereo not shown),6.28
13,C=CCN1C(=O)C(C)(C)Nc2ccccc21,1.71
14,O=C1CCC(=O)N1CC1CC2CCC1C2 (stereo not shown),-0.0728
15,COc1ccc(S(=O)(=O)NCC(c2ccco2)N2CCc3ccccc32)cc1 (stereo not shown),8.58
16,COc1cccc(NC(=O)CN(C)C(=O)CCNS(=O)(=O)c2ccc(C)cc2)c1,4.92
17,COCC1=C(C(=O)OC)C(c2cccs2)n2ncnc2N1 (stereo not shown),13.3
18,COc1cc(NC(=O)C2CCCN2S(=O)(=O)c2ccc3c(c2)CC(C)N3C(C)=O)cc(OC)c1 (stereo not shown),-3.09
19,C=CCN(c1ccccc1Cl)S(=O)(=O)c1cccc(C(=O)NCCc2ccc(OC)cc2)c1,0.98
20,CC(C)(CNC(=O)c1ccc(NS(=O)(=O)c2ccc(F)cc2)cc1)N1CCOCC1,3.14
21,CCOC(=O)NC(=O)CN1C(=O)NC2(CCc3ccccc32)C1=O (stereo not shown),13.6
22,CC(C)(C)C(=O)COC(=O)c1cc(-c2ccncc2)nc2ccccc12,6.46

row,SMILES,"hERG current change (%, negative = inhibition) at 1uM [%]"
1,COc1ccc(CNC2CCN(Cc3ccccc3)CC2)cc1,-3.31
2,CCOC(=O)C1=C(C)NC2=C(C(=O)C(C(=O)OCC)C(c3ccc(OC)cc3)C2)C1c1ccccn1 (stereo not shown),11.4
3,COc1ccc(C)cc1NC(=O)C/C(C)=N/NC(=O)Cc1cccc2ccccc12,1.45
4,O=C(c1ccc(Oc2ccc([N+](=O)[O-])cc2Cl)cc1)N1CCCC1,-3.03
5,CCOc1cc(/C=N/NC(=O)CN2CCCCC2)ccc1O,1.96
6,Cc1noc(NS(=O)(=O)c2ccc(NC(=O)CCN3C(=O)c4ccccc4C3=O)cc2)c1C,5.69
7,Cc1nc2ccc(NC(=O)N3CCC(c4ccccc4)C3)cc2nc1C (stereo not shown),4.24
8,O=C(NCc1nnc2c(C(F)(F)F)cc(Cl)cn12)c1cccs1,5.82
9,COC(=O)[C@]1(C)CCC[C@@]2(C)C3CC[C@@]4(C)C[C@]3(CCC21)CC(=O)N4Cc1ccc(OC)cc1 (stereo partly shown),11.9
10,O=C(O)C1C2C=CC(C2)C1C(=O)NC1CCS(=O)(=O)C1 (stereo not shown),13.2
11,Cc1ccc(O)c(C(=O)c2cnn(-c3ccccc3)c2)c1,15
12,Cc1ccccc1Nc1nnc(SCC(=O)NC(=O)Nc2ccc3c(c2)OCCO3)s1,2.56
13,CCC(=O)Nc1nc2c(OC)ccc(C)c2s1,9.19
14,COc1ccc(C(=O)C2CCCN(Cc3ccc(NC(C)=O)cc3)C2)cc1OC (stereo not shown),8.1
15,COc1ccc(/C=N/NC(=O)c2ccc(Cn3cc([N+](=O)[O-])cn3)o2)c(OC)c1C,16
16,COC(=O)c1c(N)c(C#N)c2n1CCCCC2,6.54
17,Cc1ccc(/C=N/N=C2\SCC(=O)N2CC2CC2)cc1,10.4
18,COc1ccc(OC)c(NC(=O)Nc2c(O)ccc3ccccc23)c1,5.38
19,CCOC(=O)c1csc(-c2snnc2C)n1,10.4
20,CCc1nn(CC(=O)NCc2cccnc2)c(=O)c2cc3occc3n12,-0.822
21,CN1N=C2c3ccccc3CCCC2C1c1ccc(F)cc1 (stereo not shown),13.3
22,CCCn1c2ccccc2c2cnn(CC(=O)NC3CCN(Cc4ccccc4)CC3)c(=O)c21,-2.53
